Whole data set: some 33,000 sequences, median “E-score (-0.5 to 0.5)” near -0.035, cut for the highest 2% near 0.34. The list shows a part of the results.
Molecular target: T1, Mot3 (UniProt P54785)
T1 sequence: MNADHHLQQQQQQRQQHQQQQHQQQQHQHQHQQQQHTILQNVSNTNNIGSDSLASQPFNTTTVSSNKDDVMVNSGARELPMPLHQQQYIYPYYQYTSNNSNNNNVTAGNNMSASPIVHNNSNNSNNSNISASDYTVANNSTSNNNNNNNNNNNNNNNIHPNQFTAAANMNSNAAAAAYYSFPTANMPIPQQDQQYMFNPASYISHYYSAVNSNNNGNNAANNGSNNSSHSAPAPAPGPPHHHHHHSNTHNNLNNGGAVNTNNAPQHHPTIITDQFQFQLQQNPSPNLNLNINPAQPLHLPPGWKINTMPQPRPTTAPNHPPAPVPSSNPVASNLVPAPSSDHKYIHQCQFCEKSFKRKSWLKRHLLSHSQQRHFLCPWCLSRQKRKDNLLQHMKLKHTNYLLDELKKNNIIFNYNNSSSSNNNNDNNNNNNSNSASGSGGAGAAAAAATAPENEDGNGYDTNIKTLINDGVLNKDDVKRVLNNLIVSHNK
Assay: PBM E-score (8-mer binding enrichment) (E-score (-0.5 to 0.5)); higher = stronger / more preferred TF binding; most listed sequences are background and not binding sites
Details: protein concentration: 200 nM; construct: GST-full length
In short: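 The E-score, a modified Wilcoxon-Mann-Whitney statistic, was computed by the Universal PBM Analysis Suite for every ungapped eight-base word pooled with its reverse complement. Scans behind it were normalised with masliner after bound GST-tagged yeast transcription factors were detected with fluorescent anti-GST. The proteins, at about 100-200 nM, had been applied to universal all-10-mer Agilent arrays made double-stranded by primer extension.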

Sequence	PBM E-score
GGACCCTA	-0.246
GCTGCGGA	-0.256
ACTCCATC	-0.223
AGTGTCAG	-0.0679
AAGTTAGG	0.037
CTTAGGGA	-0.0302
ACTCGTCA	-0.0271
CACACAGG	0.14
GTTCTTCA	0.0923
AAATCGTA	0.0774
ATGGCAAC	-0.0341
GAATGGTA	0.132
GTGTGTGA	0.0987
AGTGTCTC	-0.201
CCGTTTAA	0.0414
AATCCTCG	-0.0621
ACCAGTTA	0.103
CGCTGTCA	-0.2
ATATGGCA	0.0453
CACCCACG	0.0103
GCTGCCAA	-0.176
GATGTTGC	0.0102
ACAGACTC	-0.0283
AAAGATCC	-0.115
AGGTTCCG	-0.0365

Sequence	PBM E-score
CTCTTTTA	-0.141
CAGGGTCG	-0.185
CCCGGATC	-0.207
TGCACAAA	0.0698
AGCCATAC	-0.163
AGTTCTTG	0.147
CACTGCAC	-0.019
ATGGTAAA	0.0184
CGGAATAA	-0.00613
AAGATCGT	-0.0615
CTTTTTAC	0.21
TGGGTCAA	-0.13
CTTTATTA	0.146
CGACGACG	-0.218
CATCCGCA	-0.192
AAACTTAT	0.097
AGGCAAGA	0.477
AGATCAGC	-0.207
CCATTACC	-0.0695
ATCTCTTC	-0.041
ACTCGCGC	-0.0968
CGAAAATA	0.00108
GAGAGTTA	-0.0401
AGGTCGCC	-0.171
AGAGTAGA	0.0558

Sequence	PBM E-score
CAAACACA	0.206
CAAGCTAG	-0.0555
CGCGACGA	-0.161
ATGAAGCG	-0.0797
ACCGGTTC	-0.148
CATCTAGC	0.111
CACGTTCC	0.179
CCAATGGG	-0.321
TTTCCAAA	0.0771
AGATTACG	0.145
TATAATAA	0.164
AGACCTTA	-0.167
CATACGCA	0.0643
AGGACGAC	-0.177
AATTTATG	0.16
CACGGCCG	-0.0243
GATTTTGA	0.103
ACTCATGA	-0.128
ACCTCACC	-0.223
TATATAAA	0.211
CATTCTCA	0.0726
GTTGATGA	0.0844
CCCACCAG	-0.193
ATGAGTCA	-0.0561
ATATTCAG	0.0181

Sequence	PBM E-score
GCACCCCA	-0.132
ATGAATTG	0.00768
AATCAGGG	-0.271
ACGGGACG	-0.0656
GTCAGCGA	-0.109
ACAATCGC	0.0988
ACCACGGT	-0.288
CCCGTAGA	-0.221
ACATGCCC	0.21
AGGTCTAA	-0.0392
AAAATACT	-0.114
AAATATGT	0.268
CAAGTCCG	-0.141
ACATCCCA	0.0982
CAATAGAC	0.0878
ATCCCTAC	-0.106
GAGAGGGA	-0.318
CCGTTAGG	-0.0906
AGGCCAAT	0.0294
AGCTAACA	0.101
GAGAAGCA	-0.0664
CTAATAAA	0.174
AGGCGAAC	-0.0626
GACGCCCA	-0.158
AACTAAGG	0.0319

Sequence	PBM E-score
CGACCCTC	-0.169
GGCTTTGA	-0.144
AAGGCGTG	0.0526
TGTGAACA	0.215
CCAGCCCC	-0.119
TGGTCAAA	0.0371
AATTATGG	-0.0152
CATCGTAC	-0.0204
GTCGACAC	0.193
TACGTAAA	0.31
GTGTTGGA	0.177
CACCTTAA	0.0232
CGGGTCAA	-0.037
GCTGCGCA	-0.323
AGTTGTAG	0.00177
ACGCTCGA	-0.0921
ACAAGGGA	0.165
CCTTTGCA	0.101
GCTAAGTA	0.0427
CCGTATTC	0.0799
AGCGGCCT	-0.234
AGCTGACA	-0.004
AAAGGCTA	-0.0308
ACCTATTC	0.00762
ACCGCACA	-0.261

Sequence	PBM E-score
AAGTCCGG	-0.283
AAATCGGA	-0.176
GTCATTGA	0.0095
GATTCTAA	0.0476
TAAACTGA	-0.0256
CACACCGC	0.0639
AACATAGG	0.279
AGTAAGAG	-0.101
ACGTCGGC	0.112
CCTCCAAA	-0.0286
GCGTCACA	-0.173
CGTACTGA	-0.0519
ACGACGTC	-0.186
CAAGAGAA	0.196
CGCCCCTA	-0.101
AACAGTAG	0.116
CGGACTGA	-0.27
GTAACACA	0.253
AAAGTCGC	0.146
AATCAGAG	-0.146
GGACTAAA	-0.0317
CGATCGGC	-0.254
ATCTATCG	-0.0412
AGCAAGTC	-0.217
ATAACTGC	-0.0269

Sequence	PBM E-score
ATTTTCTG	-0.0419
AAGCCCCA	-0.349
ACGGAGCT	-0.316
AACTAACG	0.0564
ACCTGTCT	-0.043
ACTTAGCT	-0.171
ATCTGTAA	0.104
CGGCTTTA	-0.0208
GCCCCGCA	-0.19
ACAGCACA	0.289
ACACCCCG	-0.336
CTGCTTGC	0.0147
CAATTGAG	-0.0334
GCCTAGGA	0.131
CCCGAAGA	-0.239
CCAAACGA	-0.105
ATGGGCAG	-0.0342
AGTCGACC	-0.0923
GCATCCGA	-0.157
TACGGCCA	-0.155
GCGAGAAC	-0.221
CCGCGATC	-0.312
CTGGGACC	-0.239
AACTCCAG	-0.128
GGCTTAGA	-0.0525

Sequence	PBM E-score
CTGCTCAA	-0.113
AACCATAG	-0.12
ACTGTGAC	-0.237
GGCAAGCA	0.306
CATTCCAC	-0.0436
GTGATAGA	-0.0161
GCAATGAA	0.211
AGTTGGCA	0.00785
ACTTCACT	0.126
ATTTAAAG	0.0192
AATAAGGA	0.0872
GCGGAAGC	-0.171
CCGAGGCG	-0.324
TCACGGCA	0.0633
CTTCCGTA	0.0741
ACGTAATC	0.29
ACTATCGG	-0.204
CAATGTCA	0.119
CGGTGCCC	0.215
AATTGAGT	0.0615
CTGTAACA	0.182
AAAAAAGT	0.0914
AAGGTCAT	-0.156
ACTCTGTG	-0.0243
CCACATCA	-0.0861

Sequence	PBM E-score
ATGGATTC	-0.094
AACCCCGG	-0.147
ACCCCTGA	-0.19
TAACACGA	0.402
AGTCCTAA	-0.0302
ACAGTCGG	-0.05
CTTAGTTA	0.0912
GGATGACA	0.123
ATCCAAGG	-0.226
ACACACGT	0.286
AGCAAAAA	0.0732
TGGACTAA	-0.0636
CCCTTTGC	0.0681
ATTTCGGC	-0.00521
AGCCAAGA	-0.143
CAGCTGCC	-0.108
AGTGTTTA	0.126
ACGACGGC	-0.0657
CACTACGG	-0.1
ACATATAT	0.262
TCCGATCA	-0.0505
GTCAGTGA	-0.233
ATTGGACG	0.00158
GTATATAA	0.175
AGAGAAAA	-0.0157

Sequence	PBM E-score
ACTTTGCC	0.116
AGTGACGG	-0.0886
AATCGGGC	0.0506
ACCTTAAT	0.138
CAATTCAA	-0.00242
CAAGCATG	0.109
CTAACGGC	-0.239
CATTCGCG	0.0789
CGACGGGC	-0.0997
AGATAAAG	-0.0787
ACAATCCA	0.128
AACTTAGC	0.0241
ATGACTCG	-0.049
ACACGAGC	0.2
ATTTAAAT	0.0438
GGATTGCC	0.0134
ACGGCGAC	-0.249
AATTTAGG	0.173
AGTGTGAA	0.141
AGCGTCCG	-0.116
GAATGTTA	0.166
ATGCATCG	0.0336
AAAGAGAC	-0.166
ATCGTAGC	-0.107
GACAACTA	0.0523

Sequence	PBM E-score
AAGCATAA	-0.00346
ACTCCGGC	-0.151
GATGCTAA	-0.122
AGACATAC	0.157
AGAGGCAT	-0.0714
CCAGCAAC	0.0114
CGGATTTA	-0.0766
CCGGTCCG	-0.411
CCCGTCTC	-0.276
TCCGAGGA	-0.211
ATGAGATA	0.0104
GGACTTAC	0.0386
AGCTAGAC	-0.275
ACCAGCAA	-0.127
CTACCCTC	-0.254
ACGAGCCT	0.21
GCCCTCGA	-0.14
CGTAGGCC	-0.0263
AGCGTATC	-0.103
GATTGGCA	-0.253
GTCATGTA	0.356
GCGATCAA	-0.0482
TCAATCCA	-0.0625
GCACCCAA	-0.21
CTAAGCAG	-0.107

Sequence	PBM E-score
ATGGGTTG	0.00733
AGTCCTAG	-0.164
CCTCCGTA	-0.112
GAGTATGC	0.0591
CTACTTAA	0.0699
CATTCAAG	-0.222
AAGGACCG	-0.0164
AGCGTCTC	-0.207
CAGCGTAG	-0.0256
CATGTCGG	0.222
GGCTCACA	-0.00891
GACACGTA	0.26
CCTCCTGA	-0.0543
CTCCGGTC	-0.193
GAATGGCC	-0.243
CAGTCGTC	-0.255
CATCGAGC	-0.193
CCGGGCAG	-0.279
CAGCCGCG	-0.0863
ATACAGTA	0.196
CGTGGTAC	0.0792
TCCATACA	0.0064
AAAAATGG	0.127
ACTTGACC	-0.0482
ACCGTGAC	-0.017

Sequence	PBM E-score
CTATAGCA	0.119
AGGAGAGC	-0.154
AAGCGTTG	0.0319
AGAAGACA	0.0253
CGGAGCCC	-0.284
TATTTCCA	0.02
CTTGTCCA	-0.0526
CAACAATC	0.215
ACCTAGAT	0.0985
CGTCCGTA	-0.13
CCAATACC	-0.0608
GCACCGGA	-0.0824
CGAGTGGA	-0.289
CTGTTTTA	0.0859
CAACATGC	0.345
AAAAGGTC	-0.161
TAGGCCGA	-0.356
CTTATTTA	0.116
TGAGAGAA	-0.0743
AGACGGTC	-0.169
CACGTACG	0.0433
GTCACAGA	-0.0442
ATAGCGAA	0.113
CCCTCTAA	-0.134
CAACTCGC	0.00205

Sequence	PBM E-score
CAATAACG	0.0921
CCGTAGAC	-0.134
ACCTTCCT	0.0149
AACCCCTC	-0.159
CGCTCGGA	-0.133
CAGTTATA	0.0381
TAGTACCA	-0.0882
TCTGTGAA	0.0158
CCCGATAA	-0.0141
CCAAGTGG	-0.079
GTATTGCA	0.0602
TATATTCA	0.0956
AGATTCAC	0.0263
AACCAGCC	-0.0888
CGGCGCGC	-0.183
ATCCAAAC	-0.0446
AGTTCCAC	-0.0307
TATATGGA	-0.0383
TACGCTAA	0.153

Source: the supplement of paper PMC3334620
